In all, about 110,000 compounds went through this assay and about 230 (0.21%) showed an effect of 50% or more. The list shows a part of the results.
The compounds below were run against DPAP1 (Plasmodium falciparum, UniProt Q8IIJ9) (assay: primary screen, percent inhibition; read by cleavage of a fluorogenic dipeptide substrate; higher = more effect of the substance).
Design: species or system P. falciparum D10 trophozoite lysates; single well
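Also: 30 min substrate incubation versus DMSO and 10 µM JCP410 controls.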

DPAP1, sequence (Q8IIJ9 whole entry, looked up): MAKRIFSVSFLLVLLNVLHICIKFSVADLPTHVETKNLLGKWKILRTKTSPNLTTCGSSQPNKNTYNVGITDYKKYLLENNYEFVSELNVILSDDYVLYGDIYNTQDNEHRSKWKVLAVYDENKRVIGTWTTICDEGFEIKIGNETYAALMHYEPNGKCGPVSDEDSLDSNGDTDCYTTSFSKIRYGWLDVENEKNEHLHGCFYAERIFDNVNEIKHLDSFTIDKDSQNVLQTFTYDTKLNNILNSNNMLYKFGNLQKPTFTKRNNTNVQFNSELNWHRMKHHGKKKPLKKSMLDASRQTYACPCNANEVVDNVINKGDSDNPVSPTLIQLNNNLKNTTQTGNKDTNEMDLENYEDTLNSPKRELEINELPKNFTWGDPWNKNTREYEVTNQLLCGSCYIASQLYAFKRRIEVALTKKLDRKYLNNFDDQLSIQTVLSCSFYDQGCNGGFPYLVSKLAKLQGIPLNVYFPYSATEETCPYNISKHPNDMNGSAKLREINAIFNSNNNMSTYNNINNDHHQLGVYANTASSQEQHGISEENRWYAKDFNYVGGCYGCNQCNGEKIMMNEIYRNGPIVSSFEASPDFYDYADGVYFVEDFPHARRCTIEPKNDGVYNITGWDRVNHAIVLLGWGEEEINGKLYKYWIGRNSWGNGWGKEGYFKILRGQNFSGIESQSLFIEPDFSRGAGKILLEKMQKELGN

| SMILES | % Inhibition @ 10 uM |
| --- | --- |
| N=c1n(CCOc2ccccc2)c2ccccc2n1CCN1CCCCC1 | 10% |
| CC(C)Cc1nnc2sc(NC(=O)COc3ccccc3F)nn12 | 6.32% |
| CCOc1ccc(NC(=O)CC2NCCNC2=O)cc1 (stereo not shown) | 0.907% |
| COc1ccccc1CNC(C)(C)CO | -1.43% |
| CC1CN(C2CCCCCC2)CC(C)O1 (stereo not shown) | 1.57% |
| Cc1ccsc1CC/N=c1/c(-c2ccccc2)c(O)c1=O | -6.24% |
| CC1=CCC2C(=O)N(c3cccc(OCC(=O)c4ccccc4)c3)C(=O)C2C1 (stereo not shown) | -2.09% |
| CCOc1ccc(-c2cc(C(=O)N3CCN(C)CC3)c3ccccc3n2)cc1 | 4.36% |
| Cc1cc(Cl)ccc1N(CC(=O)NC(C)c1ccccc1)S(C)(=O)=O (stereo not shown) | -3.28% |
| Cc1c(CNCc2cccc(F)c2)c(C(=O)O)c(C)n1Cc1c(F)cccc1Cl | -5.49% |
| CCN(CC)c1ccc(/C=C(\C#N)C(=O)c2ccc(OC)cc2)cc1 | -0.582% |
| Cc1ccccc1CN(c1ccc(C(=O)NC2CC3CCC2C3)cc1)S(C)(=O)=O (stereo not shown) | -11.7% |
| O=C(Nc1cccc2cccnc12)C1CCCCC1 | -3.41% |
| Cc1ccc(C2=NS(=O)(=O)N(C)C(C(=O)NCC(C)C)=C2)cc1 | 0.655% |
| c1ccc2c(c1)nc(N1CCOCC1)c1nnnn12 | -4.03% |
| CCOc1ccc(Cn2c(-c3nonc3N)nc3ccccc32)cc1OCC | 0.755% |
| Cc1ccc(F)cc1NC(=O)c1ccc2c(c1)OCO2 | 0.13% |
| Cc1ccc(C/N=C/C2=C(O)c3sccc3N(Cc3ccccc3)S2(=O)=O)cc1 | 1.23% |
| COCCCNc1nc2c(S(=O)(=O)c3ccc(C(C)C)cc3)nnn2c2ccccc12 | -3.08% |
| CCOC(=O)C1CCN(Cc2c(F)cccc2Cl)CC1 | -4.14% |
| CCCOc1cccc(C2c3c(oc4ccccc4c3=O)C(=O)N2c2nc(C)c(C(C)=O)s2)c1 (stereo not shown) | -2.92% |
| COc1cc(/C=C2\C(=N)N3N=C(N4CCCC4)SC3=NC2=O)ccc1O | 1.72% |
| CC(=O)Nc1ccc(NC=C2C(=O)NC(=O)NC2=O)cc1 | -3.9% |
| Cc1cc(C(=O)N2CCC(Cc3ccccc3)CC2)c2c(C)nn(-c3ccccc3)c2n1 | 2.12% |
| CC(C)NC(=O)c1ccccc1NC(=O)c1ccco1 | 0.161% |

| SMILES | % Inhibition @ 10 uM |
| --- | --- |
| Cc1nn(CC(=O)NCCc2cccs2)c(=O)c2cccn12 | -7.7% |
| CC1CCC(NC(=O)c2ccc(C/N=c3/c(N4CCC(C)CC4)c(O)c3=O)cc2)CC1 (stereo not shown) | 2.76% |
| O=CN1CCN(CCCc2ccccc2)CC1 | 1.62% |
| O=C(O)CC(NC(=O)COc1ccc(Cl)cc1Cl)C(=O)O (stereo not shown) | 7.24% |
| CC(C)c1ccccc1NC(=O)CCCC(=O)O | -2.77% |
| CC(=O)c1ccc(NC(=O)CCC2CCCC2)cc1 | 0.843% |
| Cc1ccc(S(=O)(=O)N(CC(=O)Nc2nc3ccccc3s2)C2CCCCC2)cc1 | -4.84% |
| O=C(COc1ccc2c(=O)c(Oc3ccccc3Cl)coc2c1)NC1CCCCC1 | -0.0626% |
| CCOC(=O)c1cccc(-c2ccc(/C=C3\C(=N)N4N=C(N5CCOCC5)SC4=NC3=O)o2)c1 | -5.27% |
| CCOC(=O)c1c(C)nc2ccc(Cl)cn12 | 2% |
| CCCCNC(=O)c1nn2cc(Br)cnc2c1Br | 0.215% |
| Cc1nc(NCCCn2ccnc2)c2ccccc2n1 | -5.98% |
| O=C(O)CNc1nc2ccccc2s1 | 2.17% |
| COc1cccc(-n2c(SCC(=O)Nc3nnc(C)s3)nnc2-c2c[nH]c3ccccc23)c1 | 3.55% |
| Cc1cc(O)n(Cc2ccccc2)c(=O)c1C#N | 2.44% |
| COc1cccc(NC(=O)c2cc(OC)c(OC)c(OC)c2Br)c1 | 1.1% |
| Cc1cc(C)nc(N2CC(=O)N=C2N)n1 | 0.628% |
| Cc1ccc2oc(=O)c3cnn(CC(=O)Nc4ncccc4C)c3c2c1 | -0.0115% |
| COc1cc(/C=N/n2cnnc2-n2nc(C)cc2C)ccc1O | -1.24% |
| Cc1ccc(CNC(=O)CN2C(=O)C(c3ccccc3)Oc3cccnc32)cc1 (stereo not shown) | -0.677% |
| COc1nc(=N)c2cc3c(=N)nc(OC)c3cc12 | -1.91% |
| CC(C)C[C@H](NC(=O)c1csc(-c2ccccc2N)n1)C(=O)NCC#N | -3.04% |
| CC1=C(C(=O)Nc2ccc(Cl)cc2)C(c2cccnc2)n2ncnc2N1 (stereo not shown) | 0.528% |
| CCc1[nH]nc2c1C(c1ccc(OCc3ccccc3)cc1)C(C#N)=C(N)O2 (stereo not shown) | -3.63% |
| Cc1ccc(NC(=O)c2ccc(C(=O)Nc3ccc(C)cc3C)cc2)c(C)c1 | -6.12% |

| SMILES | % Inhibition @ 10 uM |
| --- | --- |
| COc1ccccc1[N+]1=C2CCCCN2C(O)(c2cccs2)C1 (stereo not shown) | 0.0904% |
| CN1CCC(N(C)Cc2cccc([N+](=O)[O-])c2)CC1 | -2.56% |
| Cc1cc2nc(C)c(Cc3ccccc3)c(O)n2n1 | -3.96% |
| Cc1ccc(C)c(NC(=O)C2C(=O)NC3(C)CC2c2ccccc2O3)c1 (stereo not shown) | -0.756% |
| CCOC(=O)N1CCN(C(=O)COc2ccc(Cl)cc2C)CC1 | 2.43% |
| CCOC(=O)N1CCN(C(=O)Cn2cnc3c(nnn3Cc3ccccc3F)c2=O)CC1 | -0.431% |
| Cc1ccc2cnn(CCCC(=O)NCc3ccc(F)cc3)c2c1 | -2.88% |
| O=C(O)c1cc(S(=O)(=O)N2CCCC2)ccc1Br | 2.46% |
| C=CCO/C(O)=C1/C(C)=Nc2ncnn2C1c1ccc(C)cc1 (stereo not shown) | 0.0842% |
| CCOc1cc(C(=O)Nc2c(-c3cccs3)nc3ccccn23)cc(OCC)c1OCC | -2.74% |
| O=C1c2ccccc2C(=O)N1CC(=O)n1nc(-c2ccco2)nc1NCc1cccs1 | -3.24% |
| CCc1ccc(CN(C(=O)c2cc(OC)c(OC)c(OC)c2)C2CCS(=O)(=O)C2)cc1 (stereo not shown) | 0.413% |
| COc1ccc(CCNC(=O)CN(c2ccc(Cl)cc2)S(C)(=O)=O)cc1 | 4.11% |
| Cc1ccsc1CN1C[C@@H]2C[C@H](C1)c1cccc(=O)n1C2 | -0.13% |
| Cn1cnc2nc3n(c2c1=O)CCC3 | -4.21% |
| O=C(Cn1ncn2nc(-c3cccs3)cc2c1=O)NCCc1ccc(Cl)cc1 | -1.08% |
| Cc1cc(C)c(S(=O)(=O)NCC(=O)NO)c(C)c1 | 1.24% |
| COc1ccccc1CNC(=O)c1ccc(CN2CCc3ccccc3C2)cc1 | 2.24% |
| COC(=O)c1sc(N2C(=O)c3oc4ccccc4c(=O)c3C2c2cccc(OC)c2)nc1C (stereo not shown) | -0.828% |
| O=C(c1ccc(NS(=O)(=O)c2cccc(Cl)c2)cc1)N1CCN(c2ccccc2)CC1 | 9.61% |
| CCOC(=O)c1c(NC(=O)/C=C/c2cccc([N+](=O)[O-])c2)sc2c1CCCC2 | -2.42% |
| CCCOc1ccc(C(=O)N(Cc2ccc(C(C)C)cc2)C2CCS(=O)(=O)C2)cc1 (stereo not shown) | 2.1% |
| O=C(c1ccc(S(=O)(=O)N2CCOCC2)cc1)N1CCN(C23CC4CC(CC(C4)C2)C3)CC1 | 5.38% |
| CC(C)(C)NC(=O)c1cnn(-c2cccc(Cl)c2)c1C1CCN(C(=O)OC(C)(C)C)CC1 | 14.4% |
| Cc1nc(O)c(-c2ccccc2)c(O)c1C(=O)c1ccccc1 | 2.11% |

| SMILES | % Inhibition @ 10 uM |
| --- | --- |
| CCCCOc1cccc(CN2CCCCC2c2cccnc2)c1 (stereo not shown) | -6.69% |
| COc1ccc(N2CCn3c2nc2c3c(=O)n(C/C=C(/C)Cl)c(=O)n2C)cc1 | -0.413% |
| O=c1c(Cl)c(NCc2ccc(F)cc2Cl)cnn1C12CC3CC(CC(C3)C1)C2 | 1.86% |
| O=C(Nc1c(O)c2ccccc2oc1=O)c1ccco1 | 4.95% |
| Brc1ccccc1OCCCCCN1CCCCC1 | 0.135% |
| CC(C)OC(=O)C1=c2s/c(=C\c3cccnc3)c(=O)n2C(N)=C(C#N)C1c1cccnc1 (stereo not shown) | 0.147% |
| O=C(Nc1cccc([N+](=O)[O-])c1)c1cc(S(=O)(=O)Nc2ccccc2)ccc1Cl | 1.64% |
| CCCCCOc1ccc(C(=O)N(Cc2ccc(OC)cc2)C2CCS(=O)(=O)C2)cc1 (stereo not shown) | -1.18% |
| C1=C(c2ccc(-c3ccccc3)cc2)N2CCN=C2S1 | -7.56% |
| COc1cccc(NC(=O)CN(Cc2ccccc2)S(C)(=O)=O)c1 | -1.52% |
| O=C(Cn1c(=O)c2cccn2c2cccnc21)NCc1ccccc1 | 1.63% |
| CC(CCc1ccccc1)NC(=O)c1cnc2ccccn2c1=O (stereo not shown) | 1.72% |
| CC(C)NC(=O)CCc1nc(-c2ccc(C(C)(C)C)cc2)no1 | -1.35% |
| COc1ccccc1CN1CCN(Cc2ccccc2F)CC1 | 1.92% |
| O=C(c1ccc(S(=O)(=O)N2CCCCC2)cc1)n1cnc2ccccc21 | 0.147% |
| Cc1[nH]c2ccccc2c1CC1C(=O)N(C)C(=O)N(C)C1=O | -1.46% |
| COc1cccc(C(=O)N2N=C(C(F)(F)F)CC2(O)c2ccncc2)c1 (stereo not shown) | -3.95% |
| Cc1c(CN2CCCC2)c(O)n(Cc2ccccc2)c(=O)c1C#N | -3.07% |
| O=C(O)c1nccnc1C(=O)Nc1ccccn1 | -1.08% |
| COc1ccc(Cc2nnc(SCC(N)=O)n2-c2ccccc2)cc1Cl | 0.00706% |
| Cc1c(C(=O)NCc2ccccc2)cnn1-c1ccccc1 | 5.39% |
| COCCCNc1ncnc2sc3c(c12)CCC(C)C3 (stereo not shown) | -2.65% |
| COc1cc2c(cc1OC)CN(Cc1ccc(C)s1)CC2 | -2.21% |
| Cc1cc(=O)n2nc(N(C)CC(=O)NC3CCCCCC3)sc2n1 | -2% |
| Cc1nc2c3ccccc3nc(SCC(=O)NCCc3ccc(S(N)(=O)=O)cc3)n2n1 | 3.38% |
